These are yes or no findings as the source states them, for the method shown. For some assays here: In cells and extracts the contact can be indirect. Some binding calls cover weakened binding; strength is not graded here. Where a sequence is shown, tags or fusion partners need not be part of it.

Test [1] addresses T1, 6His-ALG14 (human ALG14) (human) (UniProt Q96F25).
T1 sequence: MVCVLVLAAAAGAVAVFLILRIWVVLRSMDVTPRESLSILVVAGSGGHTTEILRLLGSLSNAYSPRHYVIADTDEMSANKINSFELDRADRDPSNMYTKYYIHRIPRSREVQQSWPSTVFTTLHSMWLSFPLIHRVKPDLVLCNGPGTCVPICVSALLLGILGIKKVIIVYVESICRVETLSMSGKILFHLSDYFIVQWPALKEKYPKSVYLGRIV
Description: native gel or EMSA; complex co-expressed in E. coli and co-purified from the detergent extract (HisTrap HP, then anti-FLAG Affinity Matrix, FLAG peptide elution); Blue/Clear native PAGE and SDS-PAGE, silver staining; both purified.

Test [2] has as its target T1, 6His-ALG14 (human ALG14) (human). In words: co-IP; detergent extract (1% Triton X-100) of washed membranes of E. coli co-expressing FLAG-ALG13-iso2 and 6His-ALG14; precipitated with Ni-NTA His binding resin or with anti-FLAG Affinity Matrix; blotted with anti-FLAG or anti-His.
The target in test [3] is T2, FLAG-ALG13-iso2 (human ALG13 isoform 2) (human) (UniProt Q9NP73).
T2 sequence: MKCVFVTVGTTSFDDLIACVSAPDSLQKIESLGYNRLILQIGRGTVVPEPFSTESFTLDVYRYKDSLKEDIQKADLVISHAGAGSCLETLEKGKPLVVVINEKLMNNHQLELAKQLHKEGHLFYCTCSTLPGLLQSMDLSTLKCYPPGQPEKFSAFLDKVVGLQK
The test is described as above.

Test [4] concerns the target T3, 3HA-ALG13 iso1 (human ALG13 isoform 1) (human) (UniProt Q9NP73).
T3 sequence: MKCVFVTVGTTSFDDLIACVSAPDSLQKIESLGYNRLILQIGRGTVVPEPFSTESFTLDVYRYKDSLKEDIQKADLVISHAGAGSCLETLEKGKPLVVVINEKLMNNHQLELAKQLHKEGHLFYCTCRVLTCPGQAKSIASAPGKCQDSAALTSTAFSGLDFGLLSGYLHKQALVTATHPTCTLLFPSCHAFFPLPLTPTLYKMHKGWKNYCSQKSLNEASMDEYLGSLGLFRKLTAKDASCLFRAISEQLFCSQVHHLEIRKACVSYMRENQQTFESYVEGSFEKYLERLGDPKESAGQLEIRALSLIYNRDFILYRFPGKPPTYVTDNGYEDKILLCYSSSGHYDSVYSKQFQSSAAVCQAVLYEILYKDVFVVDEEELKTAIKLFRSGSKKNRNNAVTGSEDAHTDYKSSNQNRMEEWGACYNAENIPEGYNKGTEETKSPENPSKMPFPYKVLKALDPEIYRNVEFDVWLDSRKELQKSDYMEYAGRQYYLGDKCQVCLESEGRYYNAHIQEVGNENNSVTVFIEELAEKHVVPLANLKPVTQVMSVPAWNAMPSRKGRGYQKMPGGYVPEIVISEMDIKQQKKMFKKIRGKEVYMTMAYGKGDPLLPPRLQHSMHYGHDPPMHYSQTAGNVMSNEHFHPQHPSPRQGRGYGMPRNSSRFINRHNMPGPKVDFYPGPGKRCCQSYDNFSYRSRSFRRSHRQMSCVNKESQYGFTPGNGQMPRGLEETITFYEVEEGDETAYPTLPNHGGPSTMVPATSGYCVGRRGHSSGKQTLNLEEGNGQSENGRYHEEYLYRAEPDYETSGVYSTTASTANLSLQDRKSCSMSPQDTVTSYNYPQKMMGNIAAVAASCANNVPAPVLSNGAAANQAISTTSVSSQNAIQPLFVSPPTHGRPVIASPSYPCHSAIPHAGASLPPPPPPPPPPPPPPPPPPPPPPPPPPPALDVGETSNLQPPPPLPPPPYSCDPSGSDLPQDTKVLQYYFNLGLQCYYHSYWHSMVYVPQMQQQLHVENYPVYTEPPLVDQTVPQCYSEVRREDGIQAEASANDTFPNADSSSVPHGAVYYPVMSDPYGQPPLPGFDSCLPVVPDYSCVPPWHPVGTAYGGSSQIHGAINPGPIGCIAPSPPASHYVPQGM
Description: co-IP; HEK293 cells co-transfected with HA-tagged ALG13 isoform and FLAG-tagged ALG14; protein extract in HEPES buffer with 1% detergent; anti-HA rabbit polyclonal antibody and Protein A + G Agarose; blotted with anti-FLAG.

Test [5] deals with T4, 3HA-ALG13 iso2 (human ALG13 isoform 2) (human) (UniProt Q9NP73).
T4 sequence: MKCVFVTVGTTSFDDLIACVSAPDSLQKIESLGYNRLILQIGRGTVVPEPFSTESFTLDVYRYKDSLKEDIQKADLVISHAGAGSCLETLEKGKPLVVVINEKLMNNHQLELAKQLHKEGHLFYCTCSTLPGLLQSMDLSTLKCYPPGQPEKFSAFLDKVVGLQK
The description is as above.

B1: FLAG-ALG13-iso2 (human ALG13 isoform 2) (protein, UniProt Q9NP73-2 1-165)
chain: MKCVFVTVGTTSFDDLIACVSAPDSLQKIESLGYNRLILQIGRGTVVPEPFSTESFTLDVYRYKDSLKEDIQKADLVISHAGAGSCLETLEKGKPLVVVINEKLMNNHQLELAKQLHKEGHLFYCTCSTLPGLLQSMDLSTLKCYPPGQPEKFSAFLDKVVGLQK
As to B1, the binding entry in test [1] and in test [2] was “binds” throughout.

B2: 6His-ALG14 (human ALG14) (protein, UniProt Q96F25 1-216)
chain: MVCVLVLAAAAGAVAVFLILRIWVVLRSMDVTPRESLSILVVAGSGGHTTEILRLLGSLSNAYSPRHYVIADTDEMSANKINSFELDRADRDPSNMYTKYYIHRIPRSREVQQSWPSTVFTTLHSMWLSFPLIHRVKPDLVLCNGPGTCVPICVSALLLGILGIKKVIIVYVESICRVETLSMSGKILFHLSDYFIVQWPALKEKYPKSVYLGRIV
With B2, the binding result in test [3] is recorded as “binds”.

B3: ALG14-3FLAG (human ALG14) (protein, UniProt Q96F25 1-216)
chain: MVCVLVLAAAAGAVAVFLILRIWVVLRSMDVTPRESLSILVVAGSGGHTTEILRLLGSLSNAYSPRHYVIADTDEMSANKINSFELDRADRDPSNMYTKYYIHRIPRSREVQQSWPSTVFTTLHSMWLSFPLIHRVKPDLVLCNGPGTCVPICVSALLLGILGIKKVIIVYVESICRVETLSMSGKILFHLSDYFIVQWPALKEKYPKSVYLGRIV
In the case of B3, the values for the binding result in test [4] and in test [5] were “no binding” and “binds”, respectively.
